Laboratory results from PubChem BioAssay AID1508624 (National Center for Advancing Translational Sciences (NCATS), 2021).
In all, about 48,000 compounds went through this assay and about 120 (0.25%) were called active. Inconclusive results (about 4%) are left out. Calls come from the whole dose curve; as a rule, active = well fitted activation curve with a large enough effect; inconclusive = small, poorly fitted or top-dose-only effect, or another doubt; inactive = no such curve, though single readings can be large or run the other way. The list shows a part of the results.

assay: Primary qHTS for Identification of Small Molecule Activators of Huntingtin-Antisense Promoter Activity; conditions: HEK293 HTT-AS promoter firefly luciferase reporter, 24 h; series mostly up to 57.5 µM; activity change, positive = activation: at the top concentration; note: nearly all actives have a fitted effect of over 55% in size
Method in brief: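 Firefly luciferase signal from promoter-reporter HEK293 cells was scaled between vehicle (0%) and zero RLU (-100%). Compounds were tested at final concentrations of up to 57.5 uM over 24 h at 37 degrees C. PTC124 at 50 uM final served as control inhibitor.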

Activity change, positive = activation, inactive:
CC(=O)Nc1cccc(NC(=O)CSc2cn(CC(=O)N3CCCCCC3)c3ccccc23)c1 -24.4%, CCOC(=O)c1cccc(NC(=O)N2CCC(CN3CCCCCC3)CC2)c1 -1.9%, O=C(Nc1ccc2oc(-c3cccc(Cl)c3Cl)nc2c1)c1cccc(Br)c1 -38.9%, O=C(c1cn(CCOc2ccc(Cl)cc2)c2ccccc12)C1CCCCC1 -27.9%, COc1cn(CC(=O)Nc2cc(C)ccc2C)c(CN2CCCCC2)cc1=O -15.5%, O=[N+]([O-])c1cc(-c2nc(-c3ccncc3)no2)ccc1NCc1ccccc1 5.65%, COc1ccccc1NC(=O)C1=C(C)Nc2nc(SCc3ccccc3Cl)nn2C1c1ccncc1 (stereo unspecified) -14.5%, CC(=O)c1c(C)oc2ccc(N(C(=O)c3ccncc3)S(=O)(=O)c3ccc(C)cc3C)cc12 -44.7%, CCN(CC)S(=O)(=O)c1ccc(C(=O)NCCSc2c(-c3ccc(OC)cc3)[nH]c3ccccc23)cc1 -30.3%, COc1cccc(NC(=O)c2ccc(-c3nc(COc4ccc(C)cc4)c(C)o3)cc2)c1 -17.8%, Cc1ccc2c(c1)c1c(c(=O)n(-c3ccccc3C)c(=O)n1CC(=O)NCC1CCCO1)n2C (stereo unspecified) -11%, Cc1cc(=O)n2nc(N3CCC(C(=O)Nc4ccc(Br)cc4F)CC3)sc2n1 -14.4%, Cc1ccc(C)c(NC(=O)CCCN2C(=O)C(c3ccccc3)Oc3cccnc32)c1 (stereo unspecified) -26.9%, CC(C)(C)c1nnc(NS(=O)(=O)c2ccccc2)s1 -6.44%, OC[C@H]1OC(O)C[C@@H](O)[C@H]1O (stereo partly specified) -0.868%, O=C(CNC(=O)c1ccc(Cl)cc1)OCc1cc(=O)n2nc(C3CCCCC3)sc2n1 -12%, CCOC(=O)c1cccc(NC(=O)c2cc3cc4ccc(C)cc4nc3s2)c1 5.33%, CSc1ccc(CCNC(=O)c2cc3c(-c4ccccc4F)nn(C)c3s2)cc1 -19.9%, Nc1c(C(=O)NCc2ccccc2)nnn1Cc1cccc(Br)c1 -42.9%, Cc1cccc(NC(=O)Cn2c(=O)n(CCC(=O)N3CCc4ccccc4C3)c(=O)c3ccccc32)c1 -17.5%, CCCCc1oc2ccccc2c1C(=O)c1cc(I)c(OCCN(CC)CC)c(I)c1, CCOC(=O)c1cc(-c2ccc(F)cc2)n(CCC(=O)NC2CCCCC2)c1C -29.5%, Cc1cc(C)cc(Nc2nc3c(S(=O)(=O)c4cccc(Cl)c4)nnn3c3ccsc23)c1 -5.2%, CC(=O)Nc1ccc(C(=O)CSc2nnc3ccc4ccccc4n23)cc1 -2.26%, CCOC(=O)c1cc2c(=O)n3ccccc3nc2n(C)c1=NC(=O)c1cc2ccccc2o1 -2.12%, CCOc1ccc(NC(=O)NCCN2CCN(c3ccccc3F)CC2)cc1 -8.98%, O=S(=O)(NCc1ccc(Cl)cc1)c1ccc(N2CCCCS2(=O)=O)cc1 -37.7%, CCCCN(CCN(CCCC)C(=O)N1CCOCC1)C(=O)N1CCOCC1 -6.19%, CN1CCN(c2ccc3nc(-c4c(N)c5c(F)cccc5[nH]c4=O)[nH]c3c2)CC1 24.9%, COc1cccc2sc(N3CCN(C(=O)CCS(=O)(=O)c4ccc(F)cc4)CC3)nc12 -37.9%, Cc1ccc(CNC(=O)C(=O)NCC(c2cccnc2)N2CCN(c3ccccc3F)CC2)cc1 (stereo unspecified) -48.2%, Cc1ccsc1CN(C(=O)c1oc2ccccc2c1C)C1CCS(=O)(=O)C1 (stereo unspecified) -31.3%, Cc1oc2ncn(C)c(=O)c2c1C(=O)NCCCN(Cc1ccccc1)C(C)C -4.27%, CCn1c(=O)c2sccc2n2c(CCC(=O)Nc3ccc(OC)c(Cl)c3)nnc12 -9.21%, CCc1ccc(C2NC(=O)c3[nH]nc(-c4cccc(OC)c4)c32)cc1 (stereo unspecified) -24.4%, CC(C)Oc1ccc(CNC(=O)C2CCN(c3nc4ccccc4n(C)c3=O)CC2)cc1 -8.95%, COc1ccccc1CC(=O)Nc1ccc2nc(N3CCC(C)CC3)cc(C)c2c1 -6.94%, Cc1ccc(C)c(Cn2c3ccccc3c3cnn(CC(=O)NC(C)c4ccccc4)c(=O)c32)c1 (stereo unspecified) -5.16%, COc1ccc(S(=O)(=O)N(CC(=O)Nc2cccnc2)c2ccc(C)cc2)cc1OC 0.545%, COc1cc2c(=O)n(CCC(=O)NCC3CCCO3)c(=O)n(CC(=O)Nc3ccc(F)cc3)c2cc1OC (stereo unspecified) -9.14%, Cc1ccc(O)c(NC(=O)CCS(=O)(=O)c2nc(-c3ccc4c(c3)OCO4)cc(C(F)(F)F)n2)c1 17.1%, C=C1C(=O)O[C@H]2[C@@H]1CCC(C)=CCC[C@@]1(C)O[C@@H]21 -61%, O=c1[nH]c(=O)n([C@H]2C[C@H](O)[C@@H](CO)O2)cc1I 5.65%, CCc1ccc(CNC(=O)CCn2c(=O)c3cccn3c3ccc(F)cc32)cc1 -17.1%, CCOc1ccccc1CNC(=O)c1cc(-c2ccc(C)c(C)c2)nc2ccccc12 23%, CCOc1ccccc1NC(=O)COc1ccc(S(=O)(=O)NC2CCCCC2)cc1 -32.3%, CCn1c(CN2CCCCC2)nc2cc(NC(=O)c3ccc([N+](=O)[O-])cc3)ccc21 -28.4%, O=C(Nc1ccc(F)c(F)c1)C1CCCN1S(=O)(=O)c1cccc2nsnc12 (stereo unspecified) -15.9%, CCc1ccc(NC(=O)CSc2nc3ncccc3[nH]2)cc1 0.932%, O=S(=O)(c1ccccc1)c1nc(-c2ccc(F)cc2)oc1N1CCCCCC1 -23.4%, Cc1cccc(N(C)C(=S)Oc2ccc3ccccc3c2)c1, CCOc1ccc(/C=C/C(=O)Nc2sc3c(c2C(=O)OC)CCC3)cc1 -18.4%, CCOC(=O)c1ccc(-c2ccc(/C=C(\C#N)C(=O)Nc3ccc(C)cc3OC)o2)cc1 -0.0736%, CCCNC(=O)CN1CCN(c2ncc(NC(=O)c3ccc(Cl)cc3)cc2C(=O)O)CC1 17.1%, N[C@@H](COP(=O)(O)O)C(=O)O -8.77% [at 25.1 µM, percent change from vehicle, -100% = no light], CCCCN1C(=O)C(O)(c2c(C)[nH]c3ccccc23)c2ccccc21 (stereo unspecified) -24.6%, CCCOc1ccccc1C1Oc2nc(SC)nnc2-c2ccccc2N1C(C)=O (stereo unspecified) -26%, COCCNC(=O)Cn1ncc2c(C)n(Cc3ccc(C)cc3)c(C)c2c1=O -14.7%, Cc1ccc(C)c(CNC(=O)c2cnc3sc(N4CCCC4)nn3c2=O)c1 -15.1%, CCOc1ccc(C(=O)c2cn(Cc3ccc(F)cc3)c3ccc(F)cc3c2=O)cc1 -29.3%, Cc1ccc(CN(Cc2ccco2)C(=O)c2oc3ccc(C)cc3c2C)cc1 -23.2%, Cc1cccc(-n2ncc3c(N4CCCCCC4)ncnc32)c1 -55.2%, CC(C)(C)C(=O)OC1=CN(Cc2ccccc2)S(=O)(=O)c2ccccc21 -8.99%, CSc1ccc(C2c3c(oc4ccccc4c3=O)C(=O)N2CCCN2CCOCC2)cc1 (stereo unspecified) 10.5%, Oc1ccc(NCc2ccc(OCc3ccccc3Cl)cc2)cc1 -2.54%, O=C(CSc1nc(=O)n(Cc2cccnc2)c2c1CCC2)Nc1ccc(F)cc1F -14.5%, N#C/C(=C\c1c(Oc2ccc(Br)cc2)nc2ccccn2c1=O)c1nc2ccccc2s1 6.11%, COC(=O)c1cccc(NC(=O)Nc2cc(C(=O)NCc3cccc(F)c3)ccc2N2CCCC2)c1 -5.71%, CC(=O)N1CCc2cc(Br)cc(S(=O)(=O)N3CCN(c4cccc(C)c4)C(C)C3)c21 (stereo unspecified) -10.1%, COc1ccc(N2CCN(C(=O)CS(=O)(=O)c3cccc4nsnc34)CC2)cc1 -30.5%, CCCCN1CCc2nc(N3CCN(C)CC3)ncc2C1 -6.65%, O=C(NCCc1csc(-c2cccnc2)n1)c1ccc(F)c(F)c1 -31.2%, COc1ccc(CCN2CCC(CNC(=O)c3cnn(-c4ccccc4)c3C3CCN(C(=O)OC(C)(C)C)CC3)CC2)cc1 -15.4%, COc1ccccc1N1CCN(C(=O)c2cn(C)c3ccc(S(=O)(=O)N4CCOCC4)cc3c2=O)CC1 -11.3% [at 11.5 µM, percent change from vehicle, -100% = no light], CN(C)c1ccc(CNC(=O)CCCn2ccc3cc(S(=O)(=O)N4CCCC4)ccc32)cc1 0%, COc1ccc(Cl)cc1NC(=O)c1cc(C)nn1-c1ccccc1 -15.9%, CCOC(=O)c1c(NC(=O)c2cc(=O)c3ccc(C)cc3o2)sc(C)c1C -5.29%, COc1cccc(N2CCN(S(=O)(=O)c3ccc4c(c3)CCCN4C(C)=O)CC2)c1 -31.6%, COc1ccc(C)cc1NC(=O)Cn1cc(S(=O)(=O)Cc2ccccc2Cl)c2ccccc21 -15.1%, CCOc1cc2c(cc1OCC)C(c1c(F)cccc1Cl)CC(=O)N2 (stereo unspecified) -38%, CCc1ccccc1NC(=O)c1nc(-c2ccncc2)no1 -5.17%, Cc1cccc(NC(=O)Cn2c(C(F)(F)F)nc3ccccc32)c1C -28.5%, O=C(NCCc1csc2nc(-c3ccc(F)cc3)nn12)c1ccco1 -22.1%, CCOC(=O)c1c(S(=O)(=O)N2CCC(C(=O)N3CCN(c4cc(C)ccc4C)CC3)CC2)c(C)n(C)c1C -21.8%, Cc1sc2c(c1C)c(=O)n(-c1ccc(Cl)cc1)c(=O)n2Cc1c(F)cccc1Cl -31.5%, COc1cc(C2C(C(=O)Nc3ccccc3)=C(C)Nc3nc(SCc4ccccc4F)nn32)cc(OC)c1OC (stereo unspecified) -21.5%, COC(=O)c1cc(NC(=O)CCc2c(C)nc3cc(-c4ccccc4)nn3c2C)cc(C(=O)OC)c1 -20.3%, CC1CCN(S(=O)(=O)c2cc(C(=O)Nc3ccc(Br)cc3F)n(C)c2)CC1 -37.4%, Cc1ccc(-c2cc(C(=O)N3CCN(c4ccccc4)CC3)c3ccccc3n2)cc1C 23.8%, CCOc1ccccc1CNS(=O)(=O)c1csc(C(N)=O)c1 -27.2%, Cc1ccc(Cn2c(CCCNC(=O)C3CCCCC3)nc3ccccc32)cc1 -23.1%, O=C(Cn1ncc2c(Cl)cccc21)NCc1cccc(Br)c1 9.49%, O=C(NC1CCCCC1)c1ccc(CSc2nc3cccnc3n2Cc2ccccc2F)cc1 -26.4%, CCN1CCCC1CNC(=O)c1cc(S(N)(=O)=O)ccc1OC (stereo unspecified) -5.29%, Cc1ccc(N2CC(NC(=O)C(=O)c3c[nH]c4ccccc34)CC2=O)cc1 (stereo unspecified) -21.8%, CC(C)CCNC(=O)c1ccc2c(c1)N(Cc1ccccc1F)C(=O)c1ccccc1S2=O (stereo unspecified) -15.5%
